{
  "source": "PubChem BioAssay AID463173",
  "about": "(ICCB-Longwood Screening Facility, Harvard Medical School, 2010)",
  "note": "The campaign covered roughly 52,000 compounds. About 1,700 (3.3%) were called active. Cut-off read from the data, not from the text of the source: active = survival mostly below about 52% (no sharp cut-off); inactive = mostly above about 56%. Some of the results follow.",
  "data": [
    {"system": "Wild type", "assay": "S. aureus survival, RN4220 and DeltatarO strains – OD600, teichoic acid synthesis inhibitors, primary screen (AID 463173)", "conditions": "S. aureus RN4220 wild type/DeltatarO growth, OD600, 18 h, active compounds read low, screened at 18.75 µg/mL (by protocol)", "values": [
      {"smiles": "Cc1ccn2c(=O)cc(CSc3nnc(C)s3)nc2c1", "survival": "inactive: 85%"},
      {"smiles": "CCN(Cc1ccccc1)Cc1c(O)ccc2c(=O)c(-c3ccc(Cl)cc3)c(C(F)(F)F)oc12", "survival": "inactive: 90%"},
      {"smiles": "Cc1ccc(C)c(N2CCN(CCCNC(=O)c3cnn(-c4ccccc4)c3C3CCN(C(=O)OC(C)(C)C)CC3)CC2)c1", "survival": "inactive: 126%"},
      {"smiles": "CS(=O)(=O)N(CC(=O)NCc1ccncc1)c1ccccc1", "survival": "inactive: 108%"},
      {"smiles": "COc1ccccc1Nc1c2c(nc3ccc(NC(=O)c4ccccc4F)cc13)CCCC2", "survival": "inactive: 83%"},
      {"smiles": "COCCN=Cc1c(NCCOC)nc2ccccn2c1=O", "survival": "inactive: 90%"},
      {"smiles": "Cc1cccc(-c2noc(-c3ccccc3OCC(=O)Nc3ccccc3[N+](=O)[O-])n2)c1", "survival": "inactive: 109%"},
      {"smiles": "Cc1ccn2cc(CNC(=O)c3cccc(C(F)(F)F)c3)nc2c1", "survival": "inactive: 86%"},
      {"smiles": "CCN(CC)CCCNC(=O)c1cn(CC(C)C)c(=O)c2c1c1ccccc1n2C", "survival": "inactive: 123%"},
      {"smiles": "Cc1ccc2nc(-c3ccsc3)c(Nc3ccc(Cl)cc3)n2c1", "survival": "inactive: 105%"},
      {"smiles": "COc1ccc(-c2nnc(SCC(=O)N3CCc4ccccc43)o2)cc1OC", "survival": "inactive: 87%"},
      {"smiles": "COc1ccc(-c2nc3scc(CCNS(=O)(=O)c4ccc(Oc5ccccc5)cc4)n3n2)cc1", "survival": "inactive: 55%"},
      {"smiles": "CC(=O)c1cccc(NC(=O)[C@H]2O[C@@H]3OC(C)(C)O[C@@H]3[C@H]3OC(C)(C)O[C@H]32)c1", "survival": "inactive: 120%"},
      {"smiles": "COc1ccc(OCC(=O)N(Cc2sccc2C)C2CCS(=O)(=O)C2)cc1", "note": "(configuration not stated)", "survival": "inactive: 87%"},
      {"smiles": "CCOC(=O)c1ccc(NC(=O)C(C)Sc2nc(=O)cc(N)n2CCc2ccccc2)cc1", "note": "(configuration not stated)", "survival": "inactive: 72%"},
      {"smiles": "Cc1ccc(C)c(N2C(=O)N(Cc3cccc(C(F)(F)F)c3)c3ccccc3S2(=O)=O)c1", "survival": "inactive: 63%"},
      {"smiles": "CCn1c2c(c(=O)n3ncc(C(=O)N4CCN(c5ccc(C(C)=O)cc5)CC4)c13)CN(Cc1ccc(OC)cc1)CC2", "survival": "inactive: 131%"},
      {"smiles": "CCN(CC)C(=O)Cn1c(=O)n(Cc2ccc(C(=O)NCCCOC)cc2)c(=O)c2ccccc21", "survival": "inactive: 74%"},
      {"smiles": "O=C(Nc1ccc(F)cc1F)c1cc(S(=O)(=O)N2CCCCC2)c[nH]1", "survival": "inactive: 83%"},
      {"smiles": "COc1ccc(C(=O)CCC(=O)Nc2ccc(F)cc2F)cc1", "survival": "inactive: 82%"},
      {"smiles": "COc1ccc(F)cc1S(=O)(=O)Nc1ccc2c(c1)CCCN2C(=O)c1cccs1", "survival": "inactive: 45%"},
      {"smiles": "Cc1ccc(C)c(NC(=O)N2CCN3CCCCC3C2)c1", "note": "(configuration not stated)", "survival": "inactive: 68%"},
      {"smiles": "COc1ccc(CCN(Cc2nc3ccccc3c(=O)[nH]2)C(=O)C(C)C)cc1", "survival": "inactive: 120%"},
      {"smiles": "Cc1cc(NC(=O)c2cc(Cl)ccc2Cl)ccc1-c1cc2ccccc2oc1=O", "survival": "inactive: 138%"},
      {"smiles": "CCOC(=O)C1=C(C)N=C2SCCC(=O)N2C1c1ccc(OCc2ccccc2)c(OC)c1", "note": "(configuration not stated)", "survival": "inactive: 123%"},
      {"smiles": "CCOC(=O)CSc1nc2cc(OC)c(OC)cc2c2nc(-c3ccccc3)nn12", "survival": "inactive: 66%"},
      {"smiles": "CCOc1ccc(N2C(=O)CC(N3CCC(O)(c4ccc(Cl)cc4)CC3)C2=O)cc1", "note": "(configuration not stated)", "survival": "inactive: 105%"},
      {"smiles": "COc1ccc(Cn2nnnc2CN2CCC(NC(=O)c3cccc(OC)c3)CC2)cc1", "survival": "inactive: 115%"},
      {"smiles": "COC(=O)c1sccc1S(=O)(=O)N(CC(=O)NCc1ccc(C)cc1)c1ccc(C)c(C)c1", "survival": "inactive: 74%"},
      {"smiles": "NS(=O)(=O)c1ccc(NC(=O)COc2ccc(S(=O)(=O)NC3CCCCC3)cc2)cc1", "survival": "inactive: 76%"},
      {"smiles": "COc1cccc(N(CC(=O)N2CCC(C(N)=O)CC2)S(C)(=O)=O)c1", "survival": "inactive: 100%"},
      {"smiles": "COc1cccc(-n2nnc(-c3nc(-c4cccs4)no3)c2N)c1", "survival": "inactive: 95%"},
      {"smiles": "COc1ccc(NS(=O)(=O)c2ccc3[nH]c(=O)ccc3c2)cc1OC", "survival": "inactive: 96%"},
      {"smiles": "N#Cc1c(NC(=O)CN2CCCCC2)sc2c1CCC2", "survival": "inactive: 109%"},
      {"smiles": "O=C1CS(=O)(=O)C2(C(=O)N(Cc3ccccc3)c3ccccc32)N1c1ccc(F)c(Cl)c1", "note": "(configuration not stated)", "survival": "inactive: 92%"},
      {"smiles": "CCOc1ccc(S(=O)(=O)Nc2cccc(OC)c2)c2cccnc12", "survival": "inactive: 112%"},
      {"smiles": "Cc1ccc(CCNC(=O)CN2C(=O)COc3ccc(S(=O)(=O)N4CCCCCC4)cc32)cc1", "survival": "inactive: 91%"},
      {"smiles": "O=C(Nc1cccc(Cl)c1)c1cc(-c2ccc3c(c2)OCO3)on1", "survival": "inactive: 90%"},
      {"smiles": "CN1C(=O)c2ccccc2Sc2ccc(NC(=O)NCc3ccc(Cl)cc3)cc21", "survival": "inactive: 110%"},
      {"smiles": "CCOC(=O)c1c(NC(C)=O)sc2c1CCC2", "survival": "inactive: 104%"},
      {"smiles": "COc1ccccc1C(=O)Oc1c(Sc2ccccc2)c(C)nn1-c1ccccc1", "survival": "inactive: 57%"},
      {"smiles": "COc1cc(OC)cc(C(=O)Nc2ccc3nc4n(c(=O)c3c2)CCCCC4)c1", "survival": "inactive: 79%"},
      {"smiles": "COCCc1nn2c(=O)cc(COC(=O)c3ccccc3C)nc2s1", "survival": "active: -6%"},
      {"smiles": "Cc1ccc(C)c(N2CCN(C(=O)c3ccc4c(=O)n(CCc5ccccc5)c(=O)[nH]c4c3)CC2)c1", "survival": "inactive: 67%"},
      {"smiles": "O=C(Nc1cc(-c2ccc(Cl)cc2)no1)c1ccc(F)cc1", "survival": "inactive: 97%"},
      {"smiles": "CCCSCCCNC(=O)CN1C(=O)COc2ccc(S(=O)(=O)N3CCCC3)cc21", "survival": "inactive: 73%"},
      {"smiles": "C=CCNc1nc(Cl)nc(Cl)n1", "survival": "inactive: 101%"},
      {"smiles": "Cc1ccc2nc(C)cc(C(=O)O)c2c1", "survival": "inactive: 104%"},
      {"smiles": "CCCCn1c(=O)c2oc3ccccc3c2n(Cc2ccccc2C)c1=O", "survival": "inactive: 81%"},
      {"smiles": "CCOC(=O)c1[nH]c2c(c1Cc1ccccc1OC)C(=O)CC(c1ccccc1)C2", "note": "(configuration not stated)", "survival": "inactive: 126%"},
      {"smiles": "O=C(COc1ccc(F)cc1)Nc1ccccc1C(=O)OCc1cc(=O)n2ccsc2n1", "survival": "inactive: 90%"},
      {"smiles": "COc1cc(NC(=O)C2=CC(c3ccco3)=NS(=O)(=O)N2C)cc(OC)c1OC", "survival": "inactive: 97%"},
      {"smiles": "NC(=O)c1ccccc1NC(=O)CN1c2ccccc2S(=O)(=O)c2ccccc21", "survival": "inactive: 83%"},
      {"smiles": "CCOC(=O)c1c(C)oc2c1c(O)c(N=O)c1ccccc12", "survival": "active: 7%"},
      {"smiles": "Cc1nc(-c2ccccc2)sc1CCNC(=O)C(=O)Nc1ccc(F)c(Cl)c1", "survival": "active: 1%"},
      {"smiles": "COc1cc(Cl)c(C)cc1NC(=O)Cn1c2ncccc2c(=O)n1-c1ccccc1", "survival": "inactive: 65%"},
      {"smiles": "CCc1ccc(-n2nnc(-c3nc(-c4ccc(C)cc4)no3)c2N)cc1", "survival": "inactive: 97%"}
    ]}
  ]
}
